Experimental data reported in PubChem BioAssay AID485341 (National Center for Advancing Translational Sciences (NCATS), 2010).
Out of some 330,000 compounds screened, about 1,700 (0.52%) were called active. This list was built around the results that the source calls inconclusive (neither active nor inactive); the mix of calls is not that of the screen. Calls come from the whole dose curve; as a rule, active = well fitted inhibition curve with a large enough effect; inconclusive = small, poorly fitted or top-dose-only effect; inactive = no such curve, though single readings can be large or run the other way. A potency beside an inconclusive call is a rough fit, not a confirmed value.
Note: nearly all actives have a fitted effect of over 20% in size.
Potency is the fitted concentration of half-maximal effect; tags give direction and shape of the fitted curve.

The molecules below were run against Beta-lactamase (Escherichia coli (strain K12)) (UniProt P00811) (assay: qHTS Inhibitors of AmpC Beta-Lactamase (assay without detergent)). Conditions: AmpC nitrocefin hydrolysis, absorbance 480 nm, 0.0001% Triton; series mostly up to 57.1 µM.
Chain of UniProt P00811 (P00811 whole entry, looked up): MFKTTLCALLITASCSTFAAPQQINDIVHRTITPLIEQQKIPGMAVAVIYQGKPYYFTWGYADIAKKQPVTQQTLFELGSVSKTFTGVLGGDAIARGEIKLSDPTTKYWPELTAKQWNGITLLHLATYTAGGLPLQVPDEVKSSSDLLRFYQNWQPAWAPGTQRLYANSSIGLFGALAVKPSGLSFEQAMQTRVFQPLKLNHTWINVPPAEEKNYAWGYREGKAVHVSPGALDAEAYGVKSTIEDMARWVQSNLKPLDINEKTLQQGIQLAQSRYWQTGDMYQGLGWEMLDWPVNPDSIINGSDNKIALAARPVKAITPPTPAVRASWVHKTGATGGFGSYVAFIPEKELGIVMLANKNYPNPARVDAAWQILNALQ
Procedure, shortened: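 AmpC (5.3 nM in the dispensed reagent) in 20 mM phosphate pH 7.0 with 0.01% (detergent screen) or 0.0001% Triton X-100 was preincubated with compounds for 15 min at room temperature. Nitrocefin was then added from an 800 uM solution, and hydrolysis was followed at 480 nm.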
`COc1ccc(N2CCC(CNC(=O)Nc3cccc(OC)c3)C2)cc1` (stereo unspecified) was tested, and the Potency was active: 12.6 µM.
For `O=C(c1ccccc1)c1ccc2nc(-c3ccc(NC(=O)c4ccccc4Br)cc3)[nH]c2c1`, the Potency was inconclusive: 3.16 µM [inhibitor, full curve, poor fit].
With `COc1ccc(N2CC(NC(=O)c3ccc4ccccc4c3)CC2=O)cc1OC` (stereo unspecified) the Potency was inconclusive: 35.5 µM [inhibitor, single point].
`O=S(=O)(Nc1nc2ccccc2s1)c1ccc(Br)s1` was tested, and the Potency was active: 31.6 µM.
For `CC(=O)Nc1ccc(NC(=O)CSc2ncnn2-c2ccccc2)cc1`, the Potency was “inactive”.
With `CC1CCCCC1NC(=O)Cn1ncc2ccccc21` (stereo unspecified) the Potency was active: 3.16 µM.
In the case of `CCCN1C(=O)c2cc(C(=O)NC3CCCCCC3)ccc2C1O` (stereo unspecified), the Potency was active: 1.41 µM.
For `Cc1cccc(OCCCC(=O)Nc2ccc(S(=O)(=O)Nc3ncccn3)cc2)c1C`, the Potency was inconclusive: 17.8 µM [inhibitor, partial curve].
In the case of `Cc1ccc(N2CC(NS(=O)(=O)c3cccnc3)CC2=O)cc1C` (stereo unspecified), the Potency was inconclusive: 35.5 µM [inhibitor, single point].
`COc1ccccc1NC(=O)NNC(=O)COc1ccc2ccccc2c1` was tested, and the Potency was inconclusive: 28.2 µM [inhibitor, single point].
In the case of `Fc1ccc(NC(=S)N/N=C/c2cccc(Br)c2)c(F)c1`, the Potency was inconclusive: 2.24 µM [inhibitor, partial curve].
In the case of `CCOC(=O)C1=C(Nc2ccc(C)cc2)CC(C)(O)C(C(=O)OCC)C1c1ccccc1` (stereo unspecified), the Potency was inconclusive: 39.8 µM [inhibitor, single point].
In the case of `CCOc1ccc(NC(=O)C(CC)n2nc(C)c3c(C)n(-c4ccccc4)nc3c2=O)cc1` (stereo unspecified), the Potency was “inactive”.
In the case of `CC(=O)O[C@@]12CO[C@@H]1C[C@@H](O)[C@@]1(C)C(=O)[C@H](O)C3=C(C)[C@@H](OC(=O)[C@H](O)[C@@H](NC(=O)c4ccccc4)c4ccccc4)C[C@@](O)([C@@H](OC(=O)c4ccccc4)C12)C3(C)C` (stereo partly specified), the Potency was “inactive”.
`O=C(O)Cc1sc(Nc2cccc3ccccc23)nc1-c1ccc(Cl)cc1` was tested, and the Potency was active: 7.94 µM.
With `O=C1CC(c2ccccc2)CC(O)=C1C=NCc1ccccc1` (stereo unspecified) the Potency was “inactive”.
`O=C(Nc1cccc(-c2ccc(N3CCOCC3)nn2)c1)c1ccc(Cl)cc1` was tested, and the Potency was active: 31.6 µM.
`C=CCN(CC=C)C(=O)CCc1nnc(CCc2c[nH]c3ccccc23)o1` was tested, and the Potency was “inactive”.
For `Cc1cccn2c(=O)nc(SCC(=O)N3CCCC3)nc12`, the Potency was inconclusive: 31.6 µM [inhibitor, single point].
With `Fc1ccc(Nc2ncnc3sc4c(c23)CCC4)cc1` the Potency was active: 0.316 µM.
`CCOC(=O)c1ccc(S(=O)(=O)N2CCN(CCC#N)CC2)cc1` was tested, and the Potency was inconclusive: 5.62 µM [inhibitor, full curve, poor fit].
`COc1ccccc1NC(=O)Nc1sccc1-c1nc2ccccc2s1` was tested, and the Potency was inconclusive: 4.47 µM [inhibitor, partial curve].
In the case of `COc1ccc(NC(=O)c2ccc3c(=O)n4c(nc3c2)CCCCC4)cc1`, the Potency was “inactive”.
In the case of `Cn1c(N)c(C(=O)COC(=O)c2cc(-c3ccccc3)nc3ccccc23)c(=O)n(Cc2ccccc2)c1=O`, the Potency was inconclusive: 3.98 µM [inhibitor, single point].
With `COCCNC(=S)N/N=C(\C)c1ccc(OC)cc1` the Potency was “inactive”.
In the case of `CCOc1c(OC)cccc1C1CC(=O)Nc2cc3c(cc21)OCCO3` (stereo unspecified), the Potency was inconclusive: 2.82 µM [inhibitor, full curve, poor fit].
With `N#CCC(=O)Nc1ccc(C(=O)OCC(=O)NC2CCCc3ccccc32)cc1` (stereo unspecified) the Potency was inconclusive: 15.8 µM [inhibitor, partial curve].
For `CCc1ccc(NCc2nc3ccccc3c(=O)[nH]2)cc1`, the Potency was inconclusive: 5.01 µM [inhibitor, single point].
`C=CCOc1ccc(CN(C)C(=O)CN2C(=O)c3ccccc3C2=O)cc1` was tested, and the Potency was “inactive”.
For `NS(=O)(=O)c1cccc(NC(=O)CSc2nc3nc(-c4cccs4)cc(C(F)(F)F)c3c(=O)[nH]2)c1`, the Potency was active: 15.8 µM.
With `O=C(N=Nc1c(O)[nH]c2ccccc12)c1cc(NS(=O)(=O)c2cccs2)cc(NS(=O)(=O)c2cccs2)c1` the Potency was active: 15.8 µM.
For `O=C1CC(c2ccc3c(c2)OCO3)c2cc3c(cc2N1)OCCO3` (stereo unspecified), the Potency was inconclusive: 39.8 µM [inhibitor, single point].
With `C=CCOC(=O)c1cc(-c2ccc(/C=C3\C(=O)NC(=O)C(C#N)=C3C)o2)ccc1Cl` the Potency was inconclusive: 11.2 µM [inhibitor, partial curve].
`Cc1cc(NC(=O)c2cccc(S(=O)(=O)N3CC(c4ccccc4)CC3=O)c2)no1` (stereo unspecified) was tested, and the Potency was inconclusive: 11.2 µM [inhibitor, partial curve, poor fit].
In the case of `COc1cccc(C(=O)Nc2cccc(NC(=O)c3cccs3)c2)c1`, the Potency was inconclusive: 15.8 µM [inhibitor, partial curve].
For `C[C@@H](CO)NC(=O)c1ccc2c3n(nc2c1)-c1ccccc1CO3`, the Potency was “inactive”.
`CCOC(=O)Cn1nc(/C=C/c2ccc(C)cc2)ccc1=O` was tested, and the Potency was inconclusive: 8.91 µM [inhibitor, single point].
In the case of `CCOC(=O)C1CCCN(Cc2cc(OC)c(O)c(OC)c2)C1` (stereo unspecified), the Potency was “inactive”.
`CCc1ccccc1NC(=O)CNC(=O)CCc1nc2sc3c(c2c(=O)[nH]1)CCCC3` was tested, and the Potency was active: 31.6 µM.
For `CCOC(=O)c1ccc(NC(=O)Nc2ccc(F)cc2)cc1`, the Potency was inconclusive: 8.91 µM [inhibitor, partial curve].
For `CCOc1ccc(N(CC(=O)NC2CCCCCC2)S(=O)(=O)c2c(C)[nH]c(=O)[nH]c2=O)cc1`, the Potency was inconclusive: 44.7 µM [inhibitor, partial curve, poor fit].
With `O=C(Nc1ccc2c(c1)OCO2)c1cnn2cccnc12` the Potency was “inactive”.
For `O=C(NC(=S)NCCC1=CCCCC1)c1cncc(Br)c1`, the Potency was inconclusive: 5.62 µM [inhibitor, partial curve].
In the case of `Cc1ccc(NC(=O)CSc2nnc(CSc3nc(C)cc(C)n3)n2Cc2ccco2)c(C)c1`, the Potency was “inactive”.
For `Cc1cc(NC(=O)CSc2nc3c([nH]c4ccccc43)c(=O)n2-c2cccc(C(F)(F)F)c2)no1`, the Potency was inconclusive: 1.78 µM [inhibitor, full curve, poor fit].
In the case of `COc1ccc(S(=O)(=O)Nc2ccc(O)c3ccccc23)cc1`, the Potency was inconclusive: 6.31 µM [inhibitor, single point].
In the case of `COc1ccc(NC2=CC(c3cccc(OC)c3)N(c3ccc(OC)cc3)C2=O)cc1` (stereo unspecified), the Potency was inconclusive: 14.1 µM [inhibitor, partial curve].
In the case of `Cc1c2c(=O)n(-c3nc4ccccc4s3)nc-2cc(O)n1Cc1ccccc1`, the Potency was active: 15.8 µM.
`CC1CCc2nn(CC(=O)NCCN3CCOCC3)cc2C1` (stereo unspecified) was tested, and the Potency was active: 11.2 µM.
In the case of `CCCCN(C(=O)c1ccc2c(c1)OCO2)C1CCS(=O)(=O)C1` (stereo unspecified), the Potency was inconclusive: 35.5 µM [inhibitor, single point].
In the case of `COCc1cc(=O)[nH]c2cc(NC(=O)C3CC3)c(C)cc12`, the Potency was inconclusive: 0.501 µM [inhibitor, partial curve, poor fit].
In the case of `O=C(N/N=C/c1cn(-c2cccs2)nc1-c1ccccc1)c1ccc(O)cc1`, the Potency was inconclusive: 8.91 µM [inhibitor, single point].
With `CCCc1cc(=O)[nH]c(SCc2cc(=O)oc3cc(C)c(C(C)C)cc23)n1` the Potency was “inactive”.
`CN(CCc1ccccn1)c1ncnc2[nH]ncc12` was tested, and the Potency was inconclusive: 0.355 µM [inhibitor, partial curve, poor fit].
In the case of `Cc1cc(C)n(CC(C)O)c(=O)c1C#N` (stereo unspecified), the Potency was active: 0.316 µM.
`CCC(=O)Nc1ccc(NC(=O)CSc2nnnn2-c2ccc(OC)cc2)cc1` was tested, and the Potency was “inactive”.
In the case of `CCN1C(=O)[C@H]2[C@@H](c3ccc(-c4ccccc4)cc3)N[C@@](CC(C)C)(C(=O)OC)[C@H]2C1=O`, the Potency was “inactive”.
In the case of `Cc1ccc(-n2nc(C)c3c(-c4cccs4)c(C#N)c(N)nc32)cc1`, the Potency was inconclusive: 17.8 µM [inhibitor, partial curve].
In the case of `CC(Oc1ccccc1F)c1nnc(SCC(=O)NCc2ccc3c(c2)OCO3)o1` (stereo unspecified), the Potency was “inactive”.
`O=C(Nc1nnc(-c2ccccc2)o1)C1CCCCC1` was tested, and the Potency was “inactive”.
In the case of `CN(C)S(=O)(=O)c1ccc(N2CCCC2)c(C(=O)NNC(=O)COc2ccccc2F)c1`, the Potency was inconclusive: 35.5 µM [inhibitor, single point].
`COc1ccc(/C(C)=N/NC(=O)CNC(=O)/C=C\c2ccccc2OC)c(OC)c1` was tested, and the Potency was “inactive”.
With `CSc1sc(C(=O)NNC(=O)c2ccc(Cl)cc2)c2c1C=CCC2` the Potency was “inactive”.
With `COc1ccc(OC)c(/C=c2\sc3nc(-c4cccs4)nn3c2=O)c1` the Potency was inconclusive: 3.98 µM [inhibitor, single point].
With `O=C(CCc1ccccc1)NNC(=O)c1ccc(NC(=O)c2ccccc2)cc1` the Potency was inconclusive: 39.8 µM [inhibitor, single point].
For `Cc1ccsc1C(=O)Nc1nc2ccccc2[nH]1`, the Potency was “inactive”.
In the case of `C#CCOCCOCCOCCNc1nc(N2CCN(C(=O)CCCCCCCCCCNC(=O)[C@H](CCCCN)n3cc(CCCC(=O)O)nn3)CC2)nc(N2CCN(C(=O)CCCCCCCCCCNC(=O)[C@@H]([C@H](C)O)n3cc(C)nn3)CC2)n1`, the Potency was “inactive”.
In the case of `O=C(Nc1ccc(S(=O)(=O)Nc2nccs2)cc1)c1cnc(Cl)c(Cl)c1`, the Potency was inconclusive: 14.1 µM [inhibitor, partial curve].
With `Fc1ccccc1Nc1nc(N2CCOCC2)nc(N2CCOCC2)n1` the Potency was “inactive”.
For `COC(=O)c1scc(C)c1NC(=O)Nc1ccccc1`, the Potency was inconclusive: 0.398 µM [inhibitor, partial curve, poor fit].
For `CN(CC(=O)NCC(c1ccco1)N1CCCCC1)S(=O)(=O)c1ccc(Cl)cc1` (stereo unspecified), the Potency was “inactive”.
